# PubChem BioAssay AID1030 (National Center for Advancing Translational Sciences (NCATS), 2008)
# Values joined by “and” are separate entries in the source; they are usually repeats but may differ in a detail not shown here. Equal values may be shown once. The campaign covered roughly 220,000 compounds. About 16,000 (7.3%) were called active. The shares of active, inactive and inconclusive entries below differ from those in the screen. Calls follow the shape of the dose curve; as a rule, active = well fitted inhibition curve with a large enough effect (not every such curve was filed as active); inconclusive = small, poorly fitted or top-dose-only effect, or another doubt; inactive = no such curve, though single readings can be large or run the other way. Potencies beside an inconclusive call are fits to weak or partial responses and may not hold up. More than one record can exist for a structure, and the calls need not agree.
# Biological target: Aldehyde dehydrogenase 1A1 (Homo sapiens) (UniProt P00352)
# UniProt P00352, sequence (P00352 whole entry, looked up): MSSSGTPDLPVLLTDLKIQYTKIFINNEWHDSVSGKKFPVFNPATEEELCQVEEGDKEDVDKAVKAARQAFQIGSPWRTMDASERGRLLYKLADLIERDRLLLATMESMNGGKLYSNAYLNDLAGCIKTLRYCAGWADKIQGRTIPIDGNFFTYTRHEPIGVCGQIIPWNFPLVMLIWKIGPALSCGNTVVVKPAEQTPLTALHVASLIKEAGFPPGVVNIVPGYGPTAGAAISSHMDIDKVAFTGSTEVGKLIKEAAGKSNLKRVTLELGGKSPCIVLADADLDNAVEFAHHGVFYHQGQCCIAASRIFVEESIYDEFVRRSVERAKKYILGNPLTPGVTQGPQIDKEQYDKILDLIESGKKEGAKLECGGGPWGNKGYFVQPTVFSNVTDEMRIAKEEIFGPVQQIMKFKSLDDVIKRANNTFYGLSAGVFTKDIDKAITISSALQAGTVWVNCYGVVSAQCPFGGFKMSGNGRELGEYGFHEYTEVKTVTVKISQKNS
# Assay: qHTS Assay for Inhibitors of Aldehyde Dehydrogenase 1 (ALDH1A1);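 as to activity, negative = inhibition: plate controls were no enzyme wells and a reference inhibitor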
# Conditions: Purified ALDH1A1, NADH fluorescence, propionaldehyde substrate; series mostly up to 75.3 µM
# Potency is read from the fitted curve at half-maximal effect; tags tell the direction and shape of the fitted curve.
SMILES,Potency,"activity, negative = inhibition"
Cc1cccn2c(=O)c3cc(C(=O)NC(C)C)c(=N)n(Cc4ccncc4)c3nc12,"inconclusive: 31.6 µM [inhibitor, partial curve]",
CCN(CC)S(=O)(=O)c1ccc(N/N=C/c2ccc(O)cc2O)nc1,inactive,
Cc1nn(-c2ccccc2)c(Cl)c1/C=N/NC(=O)CNC(=O)c1ccccc1Cl,active: 7.08 µM,
O=c1cc(/C=C/c2ccccc2)oc2ccccc12,"inconclusive: 39.8 µM [inhibitor, single point]",
CCCc1cc2c(c(=O)o1)C(O)C1OC1C2=O (configuration not stated),active: 3.98 µM,
COc1ccccc1-n1nnnc1SCc1ccccc1,"inconclusive: 22.4 µM [inhibitor, partial curve]",
CCOC(=O)OCC1OC(c2ccc(C(C)=O)cc2)C=CC1Oc1ccc(-c2ccccc2)cc1 (configuration not stated),,inactive: 20.5% [at 13.5 µM]
CCOC(=O)c1c(N)n(C2CC(C)(C)NC(C)(C)C2)c2nc3ccccc3nc12,"inconclusive: 28.2 µM [inhibitor, partial curve]",
COc1cccc(CC2(CO)CCCN(Cc3cn[nH]c3C3CCCCC3)C2)c1 (configuration not stated),"inconclusive: 14.1 µM [inhibitor, partial curve]",
O=C(NCSc1ccncn1)c1ccccc1,inactive,
Cc1ccc(NC(=O)COn2nnc3ccc(S(=O)(=O)N(C)C)cc32)cc1F,"inconclusive: 44.7 µM [inhibitor, single point]",
CN(C)CCN(Cc1ccco1)C(=O)c1cc2c(Cl)nc3ccccc3c2s1,"inconclusive: 39.8 µM [inhibitor, single point]",
COc1cc2[nH]c(=S)n(CC3CCCO3)c(=O)c2cc1OC (configuration not stated),active: 7.94 µM,
Cc1cc(C)nc(NS(=O)(=O)c2ccc(NC(=O)Cn3c(=O)oc4ccccc43)cc2)n1,inactive,
CCc1nnc(NC(=O)CSc2nc3c(cc2C#N)CCCC3)s1,"inconclusive: 39.8 µM [inhibitor, single point]",
COc1ccc2cc(-c3[nH]ncc3CN3CCCN(c4ccccc4)CC3)ccc2c1,"inconclusive: 39.8 µM [inhibitor, single point]",
COc1ccc(C2NC(=O)c3ccccc3O2)c(OC)c1OC (configuration not stated),"inconclusive: 28.2 µM [inhibitor, partial curve]",
CN(C)CCNCCCOc1ccccc1-c1ccccc1,"inconclusive: 39.8 µM [inhibitor, single point]",
CN(C)c1cnn(-c2ccccc2)c(=O)c1Cl,inactive,
Cc1nc(CC(=O)Nc2nc(C(C)(C)C)cs2)cs1,"inconclusive: 39.8 µM [inhibitor, single point]",
CNS(=O)(=O)c1ccc2nc(NC(=O)/C=C/c3ccco3)sc2c1,"inconclusive: 31.6 µM [inhibitor, partial curve]",
O=c1[nH]c(CSc2nc3ccccc3o2)nc2c1cnn2-c1ccccc1,"inconclusive: 22.4 µM [inhibitor, partial curve]",
COc1ccc(-n2cccc2C=O)cc1,active: 11.2 µM,
COc1ccc(-n2cc(-c3ccc(OC)c(OC)c3)[nH]c2=S)cc1,"inconclusive: 39.8 µM [inhibitor, single point]",

SMILES,Potency,"activity, negative = inhibition"
CC1=CC(C)(C)N(C(=O)CSc2ncn[nH]2)c2ccccc21,active: 12.6 µM,
COc1ccc(CCNC(=O)C2CCN(S(C)(=O)=O)CC2)cc1,active: 15.8 µM,
CC1(C)CC(=O)C(C=NCCC2=CCCCC2)=C(O)C1,"inconclusive: 17.8 µM [inhibitor, single point]",
Cc1[nH][nH]c(=O)c1C(c1c(C)[nH][nH]c1=O)c1cn(Cc2cccc3ccccc23)c2ccccc12,active: 0.316 µM,
O=C(Cc1ccc(F)cc1)Nc1ccc(S(=O)(=O)N2CCCCC2)cc1,"inconclusive: 35.5 µM [inhibitor, single point]",
CC(=O)Nc1c(C)nn(-c2ccc([N+](=O)[O-])cc2)c1C,"inconclusive: 39.8 µM [inhibitor, single point]",
CC(C)=CCC/C(C)=C/COc1ccc2ccc(=O)oc2c1,"inconclusive: 39.8 µM [inhibitor, single point] and inconclusive: 28.2 µM [inhibitor, partial curve]",
Cc1ccc2[nH]c(=O)c3cc(C(=O)N(C)Cc4ccco4)sc3c2c1,"inconclusive: 25.1 µM [inhibitor, partial curve]",
COc1ccc(N=C2S/C(=C\c3ccco3)C(=O)N2CC(C)C)cc1,"inconclusive: 11.2 µM [inhibitor, partial curve]",
Cc1ccc(/C=C/C(=O)Nc2sc3c(c2C#N)CCCC3)o1,"inconclusive: 39.8 µM [inhibitor, single point]",
Cc1ccc(S(=O)(=O)N2CCC(=O)N(C(COCc3cccc(Cl)c3)Cc3ccccc3)CC2)cc1 (configuration not stated),"inconclusive: 15.8 µM [inhibitor, partial curve]",
O=C(c1cccc(F)c1)N1CCC2(CC1)CCN(c1ccc(-c3ccccc3)cc1)CC2,inactive,
O=c1c(C=NCc2cccnc2)c(C(F)(F)F)[nH]n1-c1nc2ccccc2s1,inactive,
Cc1sc2nc(-c3ccncc3)[nH]c(=O)c2c1-c1ccccc1,"inconclusive: 31.6 µM [inhibitor, partial curve]",
Cc1ccc(NS(=O)(=O)c2ccc(NS(=O)(=O)c3cccs3)cc2)cc1,inactive,
COc1cc(CC(=O)O)ccc1O,active: 25.1 µM,
CN(C)S(=O)(=O)c1ccc(Oc2ccc(S(=O)(=O)N(C)C)cc2)cc1,"inconclusive: 39.8 µM [inhibitor, single point]",
COc1c(OC)c2occc2c2oc(=O)ccc12,"inconclusive: 44.7 µM [inhibitor, single point]",
Cc1cc(C)n(CCc2nc(-c3ccc(C)o3)cs2)n1,active: 3.98 µM,
COc1ccc(C2C(C#N)=C(N)Oc3cc(C)n(Cc4ccco4)c(=O)c32)cc1 (configuration not stated),"inconclusive: 14.1 µM [inhibitor, partial curve]",
O=C(NC(Cc1ccccc1)C(=O)OCC(=O)N1CCc2ccccc21)c1ccco1 (configuration not stated),"inconclusive: 39.8 µM [inhibitor, single point]",
CO/N=C(/c1nonc1N)N1CCN(c2ccc([N+](=O)[O-])cc2)CC1,"inconclusive: 25.1 µM [inhibitor, single point]",
COc1ccc(OCCCC(=O)Nc2ccc3c(c2)OCCO3)cc1,active: 22.4 µM,
Cc1cc(C)nc(Nc2n[nH]c(-c3ccccc3Br)n2)n1,"inconclusive: 2.51 µM [inhibitor, full curve, poor fit]",

SMILES,Potency,"activity, negative = inhibition"
COCCN(C(=O)Cc1cccs1)c1nnc(-c2cccnc2)s1,"inconclusive: 39.8 µM [inhibitor, single point]",
COc1ccc(OC)c(C(=O)CN2CCN(S(=O)(=O)c3ccc(Br)cc3)CC2)c1,active: 1.58 µM,
c1ccc(Cn2nnnc2C(c2cccnc2)N2CCN(C3CCCCC3)CC2)cc1 (configuration not stated),"inconclusive: 44.7 µM [inhibitor, single point]",
Cc1cc2ccccc2n2c(SCC(=O)N3CCc4ccccc4C3)nnc12,"inconclusive: 15.8 µM [inhibitor, partial curve]",
O=C(O)c1ccc(CNCc2ccccc2F)cc1,inactive,
COc1ccccc1N1CCN(C[C@@H](C(=O)NC(C)(C)C)c2ccccc2)CC1,active: 25.1 µM,
O=C(NNC(=S)Nc1ccc(Cl)cc1Cl)c1ccc(N2CCOCC2)c([N+](=O)[O-])c1,active: 0.447 µM,
COc1cc(NC(=O)COC(=O)c2cnccn2)c(C)cc1[N+](=O)[O-],"inconclusive: 39.8 µM [inhibitor, single point]",
O=C(CSc1cn(CCNC(=O)c2ccc3ccccc3c2)c2ccccc12)NCc1ccco1,"inconclusive: 28.2 µM [inhibitor, single point]",
O=S(=O)(c1ccccc1)N1CCN(c2nnnn2-c2ccccc2)CC1,inactive,
CCOC(=O)C1CCCN(Cc2nc(N)nc(Nc3ccc(OC)cc3)n2)C1 (configuration not stated),inactive,
CCOC(=O)C1CCN(S(=O)(=O)c2ccc(-c3nc4ccccc4s3)s2)CC1,"inconclusive: 35.5 µM [inhibitor, single point]",
CCC1(C(=O)O)NC(c2cc(OC)ccc2O)C2C(=O)N(Cc3ccccc3)C(=O)C21 (configuration not stated),inactive,
Cc1cc(C)c(C#N)c(SCC(=O)NC2CC2)n1,"inconclusive: 37.7 µM [inhibitor, single point]",
Cc1nnc(NC(=O)C2CCCO2)s1 (configuration not stated),active: 8.91 µM,
CCOC(=O)COc1ccc(Br)cc1/C=C\c1[nH]c(=O)[nH]c(=O)c1[N+](=O)[O-],"inconclusive: 39.8 µM [inhibitor, single point]",
CCC1=C2CC[C@H]3C(=O)NC(=O)[C@H]3[C@H]2[C@@]2(C)C(=NCC3CC3)OC(=O)N2C1=O,inactive,
Cn1c(/C=C/N2CCOCC2)c(C(=O)c2ccc(Br)cc2)c(=O)n(C)c1=O,"inconclusive: 35.5 µM [inhibitor, single point]",
COc1ccc(C2(CNC(=O)c3ccc(OCC(C)C)cc3)CCOCC2)cc1,inactive,
Cc1snc(SCC(=O)c2ccc(Cl)cc2)c1C#N,active: 20 µM,
Cc1ccc(CN2C(=O)/C(=C3\SC(N4CCOCC4)=NC3=O)c3cc(Br)ccc32)cc1,"inconclusive: 39.8 µM [inhibitor, single point]",
COCC(=O)Nc1ccc(OC)c(Cl)c1,inactive,
CCc1[nH]nc2c1C(c1ccsc1)C(C#N)=C(N)O2 (configuration not stated),inactive,
CN(C)c1ccc(/C=N/NC(=O)c2ccccc2Cl)cc1,"inconclusive: 23.8 µM [inhibitor, single point]",
